# According to article PMC4336329 (PLoS ONE, 2015):
# About 14,000 (4.5%) of roughly 310,000 compounds showed an effect of 50% or more. Effects have a minus sign here. The list shows a part of the results.
# Target: human ether-à-go-go-related gene (hERG) potassium channel (human, UniProt Q12809)
# Assay: primary screen, population patch clamp on CHO cells stably expressing hERG
# 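Also: peak tail current of the secondary pulse compared with the same well before compound.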
# Sequence of human ether-à-go-go-related gene (hERG) potassium channel (Q12809 whole entry, looked up): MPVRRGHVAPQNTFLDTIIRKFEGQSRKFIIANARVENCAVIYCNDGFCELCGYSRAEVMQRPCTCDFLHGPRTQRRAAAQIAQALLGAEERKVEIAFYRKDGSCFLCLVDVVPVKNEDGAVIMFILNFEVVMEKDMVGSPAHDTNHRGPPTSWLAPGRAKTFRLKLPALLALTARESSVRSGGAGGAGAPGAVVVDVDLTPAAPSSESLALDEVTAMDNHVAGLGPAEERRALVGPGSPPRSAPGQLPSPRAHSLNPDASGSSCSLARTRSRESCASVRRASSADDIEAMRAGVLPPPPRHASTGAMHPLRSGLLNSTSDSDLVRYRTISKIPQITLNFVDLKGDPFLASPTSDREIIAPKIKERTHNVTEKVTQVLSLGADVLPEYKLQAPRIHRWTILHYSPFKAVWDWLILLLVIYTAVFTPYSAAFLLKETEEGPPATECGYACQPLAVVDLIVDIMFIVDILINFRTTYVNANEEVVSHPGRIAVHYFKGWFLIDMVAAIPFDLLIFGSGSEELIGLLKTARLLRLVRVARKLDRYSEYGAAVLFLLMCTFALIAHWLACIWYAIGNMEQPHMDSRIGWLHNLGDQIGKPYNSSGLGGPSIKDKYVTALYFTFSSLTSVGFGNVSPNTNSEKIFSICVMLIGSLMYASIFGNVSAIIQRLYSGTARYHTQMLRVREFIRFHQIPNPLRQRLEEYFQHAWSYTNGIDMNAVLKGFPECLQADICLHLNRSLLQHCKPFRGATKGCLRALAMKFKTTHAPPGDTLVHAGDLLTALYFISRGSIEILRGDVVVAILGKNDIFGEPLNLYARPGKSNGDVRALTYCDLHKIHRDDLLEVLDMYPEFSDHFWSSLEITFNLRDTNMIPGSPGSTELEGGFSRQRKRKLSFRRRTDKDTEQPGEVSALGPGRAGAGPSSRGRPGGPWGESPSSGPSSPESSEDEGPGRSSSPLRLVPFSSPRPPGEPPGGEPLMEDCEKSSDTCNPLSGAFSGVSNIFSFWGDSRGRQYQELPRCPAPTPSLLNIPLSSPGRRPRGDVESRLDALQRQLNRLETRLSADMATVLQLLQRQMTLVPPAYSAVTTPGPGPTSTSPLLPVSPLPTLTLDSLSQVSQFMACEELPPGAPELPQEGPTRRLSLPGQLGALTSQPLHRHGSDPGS
row,Structure (SMILES),"hERG current change (%, negative = inhibition) at 10uM"
1,NC(=O)C1CCN(C(=O)c2cnn(-c3ccccc3)c2NC(=O)c2cccc(F)c2)CC1,15.7%
2,CN(C)S(=O)(=O)c1ccc(N2CCCC2)c(C(=O)Nc2ccccc2F)c1,-14.7%
3,C/C(=N/NC(=O)c1cccs1)c1ccc(NC(=O)COc2ccc(Cl)cc2)cc1,23.5%
4,CN(C)S(=O)(=O)c1cc(NC(=O)CN2CCCc3ccccc32)ccc1Cl,-3.22%
5,Cc1cc2oc(=O)cc(Cn3ncc(Cl)c(Cl)c3=O)c2cc1Cl,1.74%
6,Cc1ccc(CNC(=O)CCCn2c(=O)c3ccccc3n(CC(=O)NCc3ccco3)c2=O)cc1,-12.2%
7,COc1cccc(COCC(O)Cn2cnc3cc(C)c(C)cc32)c1.O=C(O)C(=O)O (stereo not drawn),0.607%
8,Cc1[nH]n(-c2ccccc2)c(=O)c1C=Nc1cnc2ccccc2c1,-8.67%
9,O=C(c1ccccc1F)N1CCc2ccccc21,-7.14%
10,CCCCOc1ccc(S(N)(=O)=O)cc1,-11.6%
11,CCOc1ccccc1NC(=O)Nc1cccc(NC(C)=O)c1,11.6%
12,CCS(=O)(=O)c1ccc2oc(Nc3ccccc3Br)nc2c1,-17.3%
13,COc1ccc(OC)c(S(=O)(=O)NCC(=O)O)c1,9.99%
14,COc1ccc2c(c1)Cc1sc(NC(=O)c3ccco3)nc1-2,4.73%
15,Cc1cccc(-c2noc(CCCC(=O)Nc3ccc(C(N)=O)cc3)n2)c1,9.19%
16,Cc1c(Br)c([N+](=O)[O-])nn1CC(=O)Nc1ccc(C(C)C)cc1,11.8%
17,c1ccc(CSc2ncnc3ccccc23)cc1,-42.1%
18,CCOC(=O)c1[nH]c(C)c(C(=O)NCCCN2CCOCC2)c1C,-11.2%
19,O=C(NCCn1c(-c2ccncc2)nc2ccccc21)[C@H]1CCCN1c1nc(CN2CCCCC2)cs1,2.78%
20,CC(=O)N1CCc2cc(S(=O)(=O)NCCC(=O)Nc3ccc4c(c3)OCCO4)ccc21,9.08%
21,COc1ccc(OCC(=O)O/N=C(\N)c2ccc(OC)c(OC)c2)cc1,7.84%
22,CC1(C(=O)O)COC(c2ccc([N+](=O)[O-])cc2)OC1 (stereo not drawn),1.45%

row,Structure (SMILES),"hERG current change (%, negative = inhibition) at 10uM"
1,C=CCNC(=O)/C(=C\C=C\c1ccccc1)NC(=O)c1ccccc1Cl,-49.7%
2,C/C(=N\NC(=O)c1ccc(C)cc1C)c1ccc2c(c1)Nc1ccccc1S2,14.4%
3,Cc1cc(C(=O)NC2CCCN(Cc3ccc(Cl)cc3)C2)c(C)o1 (stereo not drawn),-11.9%
4,OCCN(Cc1ccccc1)Cc1ccc(Cl)cc1,-73%
5,O=c1c2[nH]c3ccc(F)cc3c2ncn1CCCN1CCOCC1,-31.3%
6,Cc1ccc(S(=O)(=O)NCCc2cn3nc(C)c(C)nc3n2)cc1C,11%
7,O=C(NN1CCOCC1)c1cccc(Br)c1,23.3%
8,COc1ccc(-c2csc3ncnc(N4CCN(S(=O)(=O)c5ccc(C)c(C)c5)CC4)c23)cc1,4.46%
9,CCOc1ccc(NC(=O)CN2CCCC2c2cccs2)cc1S(=O)(=O)N1CCCC1 (stereo not drawn),-19.8%
10,CCOc1ccc(Br)cc1/C(C)=N\NC1=NCCN1.Cl,-48.6%
11,O=C(Nc1cccc(S(=O)(=O)N2CCCC2)c1)c1cc(-c2ccccn2)nc2ccccc12,4.71%
12,O=C(c1cccc(C(F)(F)F)c1)C1CCCN(C(=O)Cn2cncn2)C1 (stereo not drawn),-2.57%
13,O=C(Nc1ccccc1C(F)(F)F)c1cc2ncc(CCCl)cn2n1,-34.9%
14,CCOC(=O)C1CCN(C(=O)c2c(C)oc3c2C(=O)c2ccccc2C3=O)CC1,-27.5%
15,CC(=O)c1sc(N/N=C/c2cccc(O)c2)nc1C,14.2%
16,CN1C(=O)C(CC(N)=O)N(NC(=O)c2ccc(Cl)cc2)C1=S (stereo not drawn),22.5%
17,Cc1ccc(C)c(NC(=O)CN(C)C(=O)c2ccccc2OCc2ccc(Cl)cc2)c1,-2.36%
18,O=C(COC(=O)c1cccc(C(F)(F)F)c1)NCc1ccc(Cl)cc1,0.934%
19,Nc1c(Cl)cc(Cl)cc1C(=O)OCC(=O)N1CCOCC1,8.63%
20,CC(=O)N1CCOc2ccc(S(=O)(=O)NC(C)c3ccccc3)cc21 (stereo not drawn),8.58%
21,COc1cccc(OC)c1C(=O)Nc1ccccc1N1CCCC1,-74.6%
22,COCCNc1nc2c(c(=O)n(Cc3cccc(Br)c3)c(=O)n2C)n1C,-4.02%

row,Structure (SMILES),"hERG current change (%, negative = inhibition) at 10uM"
1,CCc1ccc2nc3nc(C)cc(C)c3c(N)c2c1,1.12%
2,Cc1cccc(NC(=S)NNC(=O)CCn2nc(C)c([N+](=O)[O-])c2C)c1,9.61%
3,Cc1cc(NC(=O)C2CC(=O)N(c3ccccc3Cl)C2)no1 (stereo not drawn),14.6%
4,O=C1Cc2ccccc2C(=O)N1OCc1ccc(Cl)cc1,10.5%
5,Cc1cc(/C=C2\C(=O)NC(=O)N(Cc3ccccc3)C2=O)c(C)n1-c1ccc(Cl)c(C(=O)O)c1,1.67%
6,CCOC(=O)c1cc2ccccc2n1CC(=O)c1ccccc1,14.3%
7,CCN(CC(=O)Nc1ccc(C(=O)OC)cc1)C1CCCCC1,-1.85%
8,CCCN(CC(=O)Nc1ccccc1OC)C(=O)c1ccc2ncsc2c1,-26.4%
9,Cc1ccc(S(=O)(=O)N2CCN(S(=O)(=O)N3CCC(C)CC3)CC2)c(C)c1,5.91%
10,CCOC(=O)C1=C(CNCCc2ccc(Cl)cc2)NC(=O)NC1c1cccc([N+](=O)[O-])c1 (stereo not drawn),-29%
11,O=C(CSc1nc2[nH]c(=O)cc(O)c2s1)Nc1nccs1,2.57%
12,CC1CCCC(C)N1C(=O)CN1C(=O)C(C)(C)Oc2ccc(C(=O)NC3CCCCC3)cc21 (stereo not drawn),-0.937%
13,CNC(=O)Nc1ccc(S(N)(=O)=O)cc1,8.48%
14,COCc1c(C(=O)N/N=C/c2cccc3ccccc23)nnn1-c1nonc1N,9.09%
15,Cn1c(SCCS(=O)(=O)c2ccc(Cl)cc2)nnc1-c1ccccc1,-19.3%
16,COCCN(C(=O)COC(=O)c1c(-c2ccccc2)noc1C)c1c(N)n(Cc2ccccc2)c(=O)[nH]c1=O,-37.5%
17,Cc1ccc(S(=O)(=O)N(C)c2ccc(C(=O)Nc3cccc(C)n3)cc2)cc1,-8.7%
18,CCC1(C)Cc2nc3[nH]c(=S)n(-c4ccccc4C)c(=O)c3cc2CO1 (stereo not drawn),4.44%
19,CCC1CCCCN1C(=S)Nc1ccc(S(=O)(=O)Nc2ncccn2)cc1 (stereo not drawn),14.4%
20,O=C(OCC(=O)c1ccc[nH]1)c1ccc(S(=O)(=O)N2CCCCCC2)cc1,1.31%
21,O=S(=O)(c1ccc(SCCOc2ccc(Br)cc2)nc1)N1CCCC1,1.58%
22,Cc1noc(/C=C/N(C)C)c1S(=O)(=O)N1CCCC(C(=O)N2CCc3ccccc32)C1 (stereo not drawn),13%

row,Structure (SMILES),"hERG current change (%, negative = inhibition) at 10uM"
1,O=C(CN1CCN(C(=O)N2CCOCC2)CC1)Nc1cc(Cl)ccc1Cl,-59.9%
2,COCc1cc(/C=N\NC(=O)Cc2ccc(Cl)cc2)ccc1OC,-3.36%
3,COc1ccc(C(CCNCc2ccc(N(C)C)cc2)c2ccccc2)cc1 (stereo not drawn),-72.2%
4,CCN(CC(=O)Nc1c(F)cccc1F)C(=O)c1ccc(=O)n(Cc2ccccc2)n1,17%
5,O=C(Cn1cnc2ccccc21)N/N=C/c1ccccc1[N+](=O)[O-],-5.59%
6,CCOC(=O)N1CCN(C(=O)CCn2c(=S)[nH]c3ccccc3c2=O)CC1,10.4%
7,CC(=N/O)/C(=N\O)c1ccc(C)o1,3.23%
8,Cc1cc(C(=O)N2CCN(c3ccccc3)CC2)no1,-0.965%
9,Cc1cc2n(n1)C(c1sccc1C)Nc1c(C)cccc1-2 (stereo not drawn),2.2%
10,Cc1ccc(O)c(C=Nc2ccc3[nH]ncc3c2)c1,-4.45%
11,O=C(NCCN1CCN(Cc2ccccc2)CC1)c1ccc(CS(=O)(=O)c2ccc(Br)cc2)o1,-79.8%
12,O=C(C1CCC(=O)N1Cc1ccccc1Cl)N1CCN(c2cccc(Cl)c2)CC1 (stereo not drawn),-21.6%
13,Cc1cc(C)n(-c2nc(-c3ccccc3)cs2)n1,0.969%
14,CCOC(=O)C1CCN(CC(=O)NC(=O)NC2CCCCC2)CC1,7.36%
15,CCCc1nc(-c2ccccc2O)n(-c2ccccc2)n1,9.05%
16,O=C1CN(C(=O)NCC(=O)N[C@@H](C(=O)O)c2ccccc2)c2ccccc2N1,11.6%
17,Cc1ccc(OCC(=O)Nc2ccc(S(=O)(=O)N3CCOCC3)cc2)c([N+](=O)[O-])n1,5.15%
18,CC(C)(C)n1nnnc1C(c1ccc(Cl)cc1)N(Cc1cccnc1)Cc1ccco1 (stereo not drawn),-14.7%
19,CN(Cc1ccccc1)S(=O)(=O)c1ccc2[nH]c(=O)ccc2c1,-1.77%
20,O=C(NC1CCCCC1)C(c1ccc(Cl)cc1)N1CCC2(CC1)OCCO2 (stereo not drawn),-1.75%
21,CC(=O)C(Cc1ccccc1)NC(=O)CN1c2cccc3cccc(c23)S1(=O)=O (stereo not drawn),18%
